Data reported in PubChem BioAssay (NCATS).
Several values for one entry are separate records, joined by “and”; a condition that tells them apart may be missing. Equal values may be shown once. Inconclusive means that the source gave no clear call. Such entries were picked first, then a sample of the others. For some of these results: Where the call is inconclusive, the potency comes from a doubtful curve fit. More than one record can exist for a structure, and the calls need not agree. Activity calls are given as the source filed them. Unless noted, calls follow the shape of the dose curve; as a rule, active = well fitted curve in the direction sought with a large enough effect; inconclusive = small, poorly fitted or top-dose-only effect, or another doubt; inactive = no such curve, though single readings can be large; an effect the other way counts as inactive or inconclusive.

Experiments:
[1] = P-glycoprotein substrates identified in KB-8-5-11 adenocarcinoma cell line, qHTS therapeutic library screen (AID 1346987); also: nearly all actives have a fitted effect of over 65% in size
Method in brief: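 Compounds are pinned in dose-response onto KB-8-5-11 cells (500 cells/well, colchicine-free medium) and left 72 h at 37 degree C. CellTiter-Glo luminescence then yields AC50 values.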

[2] = Primary qHTS for small molecule stabilizers of the endoplasmic reticulum resident proteome: Secreted ER Calcium Modulated Protein (SERCaMP) assay (AID 1508630); conditions: SH-SY5Y GLuc-SERCaMP (Gaussia luciferase released on ER calcium loss) secretion, thapsigargin, luminescence; activity change, negative = inhibition: at 38.4 µM (top of the series) unless noted; as to activity change, negative = inhibition: % is scaled to controls: 0 for no effect and ±100 for the full control effect
Method in brief: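 The SH-SY5Y reporter protocol was run at 3 concentrations up to 38.3 uM (primary) or 11 concentrations (follow-up): 16 h compound, 100 nM thapsigargin for 4 h, then extracellular luciferase luminescence.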

[3] = Primary fluorescence-based thiol-reactive (MSTI) qHTS assay for identification of artifact compounds. (AID 1845221);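 also: thiol-reactive compounds lower the probe fluorescence signal; nearly all actives have a fitted effect of over 65% in size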
Method in brief: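 Probe: MSTI 4 uM, PBS pH 7.4, 2% DMSO. Incubation 1 h, RT, light-protected. Readout fluorescence 525/598 nm.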

[4] = Primary redox qHTS assay for identification of artifact compounds. (AID 1845223); conditions: Amplex Red/HRP redox cycling with DTT, fluorescence; redox activity (% of DA3003): at 53.8 µM (top of the series);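 as to redox activity (% of DA3003): 0% = DMSO and 100% = reference compound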
Method in brief: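 Redox-cycling detection via DTT (250 uM final) oxidation coupled to Amplex Red (25 uM)/HRP (250 mU/mL) in HBSS. 15 min preincubation plus 30 min after DTT, room temperature. Ex/Em 525/598 nm; 4-parameter Hill fit against DMSO and 10 uM DA3003.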

[5] = test system: NIH3T3; test: Cytotoxic Profiling of Annotated Libraries Using Quantitative High-Throughput Screening (AID 1296008); conditions: Five cell lines viability, CellTiter-Glo ATP luminescence, 48-72 h; max response: stronger effect = lower value; also: nearly all actives have a fitted effect of over 60% in size; as to max response: % is scaled to controls: 0 for no effect and ±100 for the full control effect
Method in brief: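 Compounds were pin-transferred onto cells and incubated 48 or 72 hr at 37 degree Celsius, 95% humidity. CellTiter-Glo was added, plates sat 10 min at room temperature, then ATP-coupled luminescence was imaged as the viability read-out.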

[6] = test system: C33A; test: Primary qHTS to identify gynecologic anti-cancer compounds using libraries of approved drugs and bioactive compounds (AID 1345084); conditions: Gynecologic cancer cell panel viability, ATPlite luminescence, 48 h; series mostly up to 57.5 µM; also: nearly all actives have a fitted effect of over 55% in size; as to activity change, negative = cytotoxicity: % is scaled to controls: 0 for no effect and ±100 for the full control effect
Method in brief: (§1)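 Cell viability after 48 h drug treatment, ATPlite luminescence readout; five doses.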

[7] = test system: CAOV3; test: as above; conditions: Gynecologic cancer cell panel viability, ATPlite luminescence, 48 h; activity change, negative = cytotoxicity: at 57.5 µM (top of the series)
Method in brief: as §1

[8] = test system: CASKI; test: as above; conditions: Gynecologic cancer cell panel viability, ATPlite luminescence, 48 h; series mostly up to 57.5 µM
Method in brief: as §1

[9] = test system: Es-2; test: as above; conditions: Gynecologic cancer cell panel viability, ATPlite luminescence, 48 h; series mostly up to 57.5 µM
Method in brief: as §1

[10] = test system: HeLa; test: as above; conditions: Gynecologic cancer cell panel viability, ATPlite luminescence, 48 h; activity change, negative = cytotoxicity: at 57.5 µM (top of the series)
Method in brief: as §1

[11] = test system: Hek293T; test: as above; conditions: Gynecologic cancer cell panel viability, ATPlite luminescence, 48 h, control line for the selectivity index; activity change, negative = cytotoxicity: at 57.5 µM (top of the series) unless noted
Method in brief: as §1

[12] = test system: PA-1; test: as above; conditions: Gynecologic cancer cell panel viability, ATPlite luminescence, 48 h; series mostly up to 57.5 µM
Method in brief: as §1

[13] = test system: SKOV3; test: as above; conditions: Gynecologic cancer cell panel viability, ATPlite luminescence, 48 h; series mostly up to 57.5 µM
Method in brief: as §1

[14] = test system: Tov-21-G; test: as above; conditions: Gynecologic cancer cell panel viability, ATPlite luminescence, 48 h; activity change, negative = cytotoxicity: at 57.5 µM (top of the series) unless noted
Method in brief: as §1

[15] = test system: Tov112D; test: as above; conditions: Gynecologic cancer cell panel viability, ATPlite luminescence, 48 h; series mostly up to 57.5 µM
Method in brief: as §1

[16] = Primary qHTS for inhibitors of nuclear receptor binding SET domain protein 2 (NSD2) in an isogenic RCH-ACV NSD2 p.E1099K mutant (9B) (AID 1645876); also: nearly all actives have a fitted effect of over 70% in size
[17] = test system: OV90; test: Primary qHTS to identify gynecologic anti-cancer compounds using libraries of approved drugs and bioactive compounds (AID 1345084); conditions: Gynecologic cancer cell panel viability, ATPlite luminescence, 48 h; series mostly up to 57.5 µM; also: nearly all actives have a fitted effect of over 55% in size
Method in brief: as §1

[18] = target: Cytochrome P450 2D6 (Homo sapiens) (UniProt P10635); test: Cytochrome P450 family 2 subfamily D member 6 (CYP2D6) small molecule antagonists: luciferase biochemical (cell-free) qHTS assay (AID 1645840; active = well fitted curve in the direction sought with a large enough effect in the repeat runs; inconclusive = weak or mixed curves; inactive = no such curve, though single readings can be large; an effect the other way counts as inactive or inconclusive; also: nearly all actives have a fitted effect of over 55% in size; as to activity change, negative = inhibition: % is scaled to controls: 0 for no effect and ±100 for the full control effect)
UniProt P10635, sequence (P10635 whole entry, looked up): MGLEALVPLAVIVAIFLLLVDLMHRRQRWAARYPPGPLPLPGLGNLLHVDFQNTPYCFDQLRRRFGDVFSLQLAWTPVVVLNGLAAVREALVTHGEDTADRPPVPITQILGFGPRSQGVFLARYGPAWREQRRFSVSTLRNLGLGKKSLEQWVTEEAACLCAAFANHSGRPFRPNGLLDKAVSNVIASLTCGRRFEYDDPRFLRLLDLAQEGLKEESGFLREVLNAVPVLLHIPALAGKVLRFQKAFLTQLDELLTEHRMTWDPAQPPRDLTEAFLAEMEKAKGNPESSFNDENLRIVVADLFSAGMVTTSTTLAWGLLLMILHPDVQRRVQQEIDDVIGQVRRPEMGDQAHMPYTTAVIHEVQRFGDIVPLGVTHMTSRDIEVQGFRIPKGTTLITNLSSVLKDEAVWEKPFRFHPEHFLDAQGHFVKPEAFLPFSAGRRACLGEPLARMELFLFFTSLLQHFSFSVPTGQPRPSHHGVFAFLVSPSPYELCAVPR
Method in brief: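 P450-Glo CYP2D6 system: proluciferin substrate converted by enzyme to luciferin, read by luminescence proportional to activity. Enzyme-substrate mix with compound 10 min at room temperature, then NADPH regeneration 1 h before detection reagent.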

[19] = test system: Zika virus NS2B-NS3 protease (unlinked complex); test: Primary screen GU Rhodamine qHTS for Zika virus inhibitors: Unlinked NS2B-NS3 protease assay (AID 1347159); also: nearly all actives have a fitted effect of over 60% in size
Method in brief: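 In dose–response format, inhibition of unlinked protease (25 nM) was measured with 1.5 microM bis-peptide Rhodamine110 substrate. Aprotinin served as the intraplate control.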

[20] = Primary qHTS for inhibitors of nuclear receptor binding SET domain protein 2 (NSD2) in an RCH-ACV wild type WT cells (2C) (AID 1645877); conditions: activity change, negative = cell killing: at 44.9 µM (top of the series) unless noted; also: nearly all actives have a fitted effect of over 70% in size
Potency is read from the fitted curve at half-maximal effect; tags tell the direction and shape of the fitted curve.

CCc1ccc(C(=O)Nc2cc(CN3CCN(C)CC3)cc(C(F)(F)F)c2)cc1C#Cc1cnc2ccnn2c1
inactive: Potency [3]
inconclusive: Potency [2] 29.8 µM [inhibitor, single point] | Potency [4] 26.7 µM [activator, partial curve, poor fit] | Potency [5] 29.1 µM [inhibitor, single point] | Potency [6] 39.8 µM [cytotoxic, single point] | Potency [7] 35.5 µM [cytotoxic, single point] | Potency [8] 12.6 µM [cytotoxic, partial curve] | Potency [9] 39.8 µM [cytotoxic, single point] | Potency [10] 35.5 µM [cytotoxic, single point] | Potency [11] 35.5 µM [cytotoxic, single point] | Potency [12] 39.8 µM [cytotoxic, single point] | Potency [13] 39.8 µM [cytotoxic, single point] | Potency [14] 35.5 µM [cytotoxic, single point] | Potency [15] 39.8 µM [cytotoxic, single point]
active: Potency [1] 8.33 µM and 3.66 µM

COc1cccc(-c2cc(NCc3ccc4c(c3)OCO4)nc(N)n2)c1
inconclusive: Potency [5] 0.461 µM [inhibitor, full curve, poor fit] | Potency [6] 2.24 µM [cytotoxic, full curve] | Potency [7] 3.55 µM [cytotoxic, full curve] | Potency [8] 0.631 µM [cytotoxic, full curve] | Potency [11] 1.58 µM [cytotoxic, full curve] | Potency [17] 3.16 µM [cytotoxic, partial curve] | Potency [13] 0.501 µM [cytotoxic, full curve, poor fit]
active: Potency [16] 0.205 µM | Potency [9] 1.41 µM | Potency [12] 1 µM | Potency [15] 0.447 µM

CC(C)(Oc1ccc(CCNC(=O)c2ccc(Cl)cc2)cc1)C(=O)O
inconclusive: activity change, negative = inhibition [2] -30.1% [inhibitor]
inactive: Potency [18] | outcome [5]

O=C1c2c(O)cccc2Cc2cccc(O)c21
inactive: max response [5] 4.73% | Potency [11] | Potency [15]
inconclusive: Potency [2] 5.01 µM [inhibitor, full curve]

CC[C@]1(O)CC2CN(CCc3c([nH]c4ccccc34)[C@@](C(=O)OC)(c3cc4c(cc3OC)N(C)[C@H]3[C@@](O)(C(=O)OC)[C@H](OC(C)=O)[C@]5(CC)C=CCN6CC[C@]43[C@@H]65)C2)C1 (stereo not given in full)
inconclusive: Potency [19] 100 µM [inhibitor, single point] | Potency [4] 8.44 µM [activator, partial curve] | Potency [5] 0.259 µM [inhibitor, full curve] | Potency [6] 1.78 µM [cytotoxic, full curve, poor fit] | Potency [7] 0.158 µM [cytotoxic, full curve, poor fit] | Potency [11] 0.447 µM [cytotoxic, full curve] | Potency [13] 0.398 µM [cytotoxic, full curve, poor fit]
active: Potency [20] 45.9 nM and 372 nM | Potency [8] 1.12 µM | Potency [17] 3.16 µM | Potency [12] 0.282 µM | Potency [14] 0.316 µM | Potency [15] 0.282 µM

O=C(O)[C@@H]1C[C@H]2C[C@@H](CCc3nn[nH]n3)CC[C@H]2CN1
inactive: Potency [19]
inconclusive: Potency [5] 7.31 µM [inhibitor, partial curve] | Potency [6] 35.5 µM [rising, partial curve, poor fit] | Potency [7] 1 µM [cytotoxic, single point] | Potency [13] 39.8 µM [rising, single point]

Cc1cc2c(cc1CC(=O)c1sccc1S(=O)(=O)Nc1onc(C)c1Cl)OCO2
inconclusive: Potency [19] 10 µM [inhibitor, full curve, poor fit] | Potency [3] 2.99 µM [inhibitor, full curve]
inactive: Potency [1] | Potency [20] | Potency [4] | max response [5] 0.409% and 4.42% | Potency [8]
4.36 µM (active) and inactive: Potency [18]

O=C(Oc1cccc2cccnc12)c1ccccc1
inconclusive: Potency [5] 33.5 µM [inhibitor, single point] | Potency [6] 39.8 µM [cytotoxic, partial curve, poor fit] | Potency [12] 0.501 µM | Potency [13] 35.5 µM [cytotoxic, partial curve, poor fit]
inactive: Potency [9] | Potency [10]

CO[C@@]1(NC(=O)CSC[C@@H](N)C(=O)O)C(=O)N2C(C(=O)O)=C(CSc3nnnn3C)CS[C@@H]21
inactive: Potency [1] | max response [5] -3.38% | Potency [17]

O=[N+]([O-])c1nccn1CO[C@@H](CO)[C@H](O)CO
inactive: Potency [19]
inconclusive: Potency [5] 23.1 µM [inhibitor, single point]
